Laboratory results reported in PubChem BioAssay AID624296 (National Center for Advancing Translational Sciences (NCATS), 2012).
Screen size: about 350,000 compounds; about 9,900 (2.8%) were called active. The shares of active, inactive and inconclusive entries below differ from those in the screen. The call rests on the fitted dose curve; in most records, active means well fitted activation curve with a large enough effect; inconclusive means small, poorly fitted or top-dose-only effect; inactive means no such curve, though single readings can be large or run the other way. Potencies of inconclusive entries are left out as doubtful fits.

Assay: A quantitative high throughput screen for small molecules that induce DNA re-replication in MCF 10a normal breast cells. Further: nearly all actives have a fitted effect of over 50% in size.
Conditions: MCF 10A DNA re-replication, Hoechst nuclear intensity, 48 h; series mostly up to 46.1 µM
Potency means the concentration at half of the fitted maximal effect; tags describe the fitted curve by direction and shape.

Row | SMILES | Potency
1 | Cc1ccc(S(=O)(=O)N(C)c2ccc(C(=O)N3CCc4ccccc4C3)cc2)cc1 | inactive
2 | Cc1noc(C)c1COc1ccccc1C(=O)NC(C)c1ccc(Cl)cc1 (configuration not stated) | inactive
3 | CCn1cc(/C=C(/C#N)S(=O)(=O)c2ccccc2)cn1 | inconclusive [activator, partial curve, poor fit]
4 | COc1ccc(NS(=O)(=O)c2csc(C(N)=O)c2)cc1 | inactive
5 | COc1ccc(N/C(=N\c2nc(C)cc(C)n2)NC(=O)C(C)C)cc1OC | inconclusive [activator, single point]
6 | OCCN1CCN(c2ncnc3c2c(-c2ccccc2)cn3-c2ccc(Br)cc2)CC1 | inconclusive [activator, single point]
7 | Cc1noc(C)c1S(=O)(=O)N(C)C[C@H]1Oc2ccc(NC(=O)NC(C)C)cc2C(=O)N([C@H](C)CO)C[C@@H]1C | inactive
8 | COc1ccc(S(=O)(=O)N2CCCC2CNC(=O)C(=O)NCc2ccc(C)cc2)cc1 (configuration not stated) | inconclusive [activator, single point]
9 | Cc1ccc(NC(=O)Cn2c(=O)ccn(Cc3ccccc3)c2=O)cc1S(=O)(=O)N1CCOCC1 | inactive
10 | O=C(CSc1ccc(Cl)cc1)N1CCN(c2ccc([N+](=O)[O-])cc2Cl)CC1 | inconclusive [activator, single point]
11 | CC(C)(C)c1ccc(OCC(=O)N2CCN(c3ccccn3)CC2)cc1 | inconclusive [activator, single point]
12 | Clc1ccccc1-c1ccc(CN2CCN(c3ccccc3)CC2)o1 | inconclusive [activator, single point]
13 | CSc1cccc(NS(=O)(=O)c2ccc(C(C)=O)cc2)c1 | inactive
14 | O=C(c1cccs1)N1CCN=C1SCc1ccccc1 | inconclusive [activator, partial curve, poor fit]
15 | CCOC(=O)Cc1csc(NC(=O)c2sc3nc4ccc(CC)cc4cc3c2N)n1 | inconclusive [activator, partial curve, poor fit]
16 | S=C1CCSc2ccc(Cl)cc2N1 | inactive
17 | O=C(Nc1ccccn1)c1cc(-c2cccc(Cl)c2)nc2ccccc12 | inconclusive [activator, partial curve, poor fit]
18 | O=C(NCC1CCCO1)c1ccccn1 (configuration not stated) | inconclusive [activator, partial curve, poor fit]
19 | CC(C)N(C(=O)NC(=O)Nc1ccc(S(=O)(=O)N2CCCC2)cc1)S(C)(=O)=O | active: 0.651 µM
20 | CCOC(=O)c1cc(-c2ccccc2)sc1NC(=O)CN1C(=O)NC(CC)(c2ccccc2)C1=O (configuration not stated) | inconclusive [activator, partial curve, poor fit]
21 | CN(C)CCCNc1cc(O)c2ncccc2c1 | inconclusive [activator, full curve, poor fit]
22 | Cc1cc(C)cc(NC(=O)CN(c2ccc(F)cc2)S(C)(=O)=O)c1 | inconclusive [activator, single point]
23 | Cn1nnnc1SCC(=O)Nc1nn(-c2ccccc2)nc1C(N)=O | inconclusive [activator, single point]

Row | SMILES | Potency
24 | Cc1ccc(-c2nc3cnccn3c2Nc2ccc3c(c2)OCCO3)o1 | inconclusive [activator, partial curve, poor fit]
25 | CCOC(=O)c1sc2nc3c(SCCC(=O)O)cc(C(=O)c4cc(OC)ccc4O)cn3c(=O)c2c1C | inconclusive [activator, partial curve, poor fit]
26 | Clc1ccc(CO/N=C/c2cccs2)cc1 | inconclusive [activator, single point]
27 | COC(=O)c1cc(S(=O)(=O)Nc2ccc(C)cn2)c[nH]1 | inconclusive [activator, partial curve, poor fit]
28 | OCCNCc1cc(Br)ccc1OCc1ccccc1 | inactive
29 | COCCn1c(=NC(=O)c2ccc(S(=O)(=O)N3CCc4ccccc4C3)cc2)sc2cc(OC)ccc21 | inconclusive [activator, partial curve, poor fit]
30 | CCOc1ccc(NC(=O)CC2C(=O)N(c3ccc(OC)cc3)C(=O)N2CCc2ccc(OC)c(OC)c2)cc1 (configuration not stated) | inactive
31 | CCOC(=O)c1sc(NC(=O)C(C)Sc2nc(N)cc(=O)[nH]2)nc1C (configuration not stated) | inactive
32 | Cc1ccccc1NC(=O)CSc1n[nH]c(-c2ccccn2)n1 | inconclusive [activator, partial curve, poor fit]
33 | CC(=O)C[C@H]1c2cc(C(F)(F)F)ccc2S(=O)(=O)N1c1ccccc1 | inactive
34 | COc1ccc(NC(=O)c2ccc3c(c2)n(C)c(=O)n3C)cc1 | inconclusive [activator, full curve, poor fit]
35 | O=C(Nc1scc(-c2ccccc2)c1C(=O)O)c1ccccc1F | inactive
36 | Cc1ccc(N2CCN(C(=O)C3CCC(=O)N(Cc4ccc(Cl)cc4)C3)CC2)c(C)c1 (configuration not stated) | inactive
37 | CC(C)COc1ccc(C(=O)Nc2ccccc2[N+](=O)[O-])cc1 | active: 13 µM
38 | Cc1nn(CC(=O)Nc2ccc(Cl)cc2)c(=O)c2cc(-c3ccccc3)nn12 | active: 20.6 µM
39 | CCN(Cc1ccccc1)S(=O)(=O)c1ccc(C(=O)N(CCCN(C)C)c2nc3cc(OC)ccc3s2)cc1 | active: 16.4 µM
40 | COc1ccc(CNC(=O)OCCN2CCN(S(=O)(=O)c3ccc(C)cc3)CCC2=O)cc1 | inconclusive [activator, single point]
41 | CCCC(=O)Nc1ccc2c(c1)c1ccccc1n2CC | active: 20.6 µM
42 | COc1ccc([N+](=O)[O-])cc1NC(=O)COC(=O)c1ccccc1O | inactive
43 | Cc1nn(-c2ccccc2)c2c1C(c1ccc(Cl)cc1)N(c1ccccc1)C(=O)N2 (configuration not stated) | inconclusive [activator, full curve, poor fit]
44 | Cc1ccc(OCC(=O)NNC(=S)NC(=O)C2CCCCC2)c(C)c1 | inactive
45 | CCC(C(=O)Nc1ccc2c(c1)OCCO2)n1nnc2ccccc2c1=O (configuration not stated) | inactive
46 | O=C(CNC(=S)N(Cc1ccccc1)Cc1ccccc1F)NCCc1ccccc1 | inconclusive [activator, single point]

Row | SMILES | Potency
47 | N#Cc1nc(Cc2cccc3ccccc23)oc1NCc1ccc(F)cc1 | inconclusive [activator, single point]
48 | O=S(=O)(NCc1ccccn1)C(F)(F)F | inactive
49 | COc1cccc(NC(=O)CCSc2ccc3ccccc3n2)c1 | inactive
50 | Cc1c(NC(=O)CN2C(=O)NC3(CCC(C)CC3)C2=O)c(=O)n(-c2ccccc2)n1C (configuration not stated) | inconclusive [activator, partial curve, poor fit]
51 | Cc1cccc2cc(C(c3nnnn3C(C)(C)C)N3CCN(C(=O)c4ccco4)CC3)c(=O)[nH]c12 (configuration not stated) | inconclusive [activator, partial curve, poor fit]
52 | COc1ccc(N(C)S(=O)(=O)c2cccc(C(=O)NC3CCCC(C)C3C)c2)cc1 (configuration not stated) | inconclusive [activator, partial curve, poor fit]
53 | Cc1cc(C(=O)NC(=S)Nc2ccccc2N2CCOCC2)ccc1[N+](=O)[O-] | inconclusive [activator, full curve]
54 | CCN(CC)C(=O)c1oc2ccc(S(=O)(=O)N3CC(C)CC(C)C3)cc2c1C (configuration not stated) | inconclusive [activator, single point]
55 | O=C(c1cc2ccccc2oc1=O)N(Cc1ccc(F)cc1)C1CCS(=O)(=O)C1 (configuration not stated) | inconclusive [activator, single point]
56 | OC(c1ccccc1)(C1CCCCC1)C(CN1CCOCC1)c1ccccc1 (configuration not stated) | inconclusive [activator, single point]
57 | C#CCOCCOCCOCCNc1nc(N2CCN(C(=O)[C@H]([C@@H](C)CC)n3cc(CCCN=C(N)N)nn3)CC2)nc(N2CCN(C(=O)[C@H]([C@@H](C)CC)n3cc(CCC(=O)O)nn3)CC2)n1 | inactive
58 | Cc1ccc(-n2nnnc2SCC(=O)c2cc(C)n(-c3cc(C)on3)c2C)c(C)c1 | inconclusive [activator, single point]
59 | OC(CN1CCN(c2cccc(Cl)c2)CC1)C(c1ccccc1)c1ccccc1 (configuration not stated) | inconclusive [activator, partial curve, poor fit]
60 | COC(=O)c1ccc(N/C=C/C(=O)c2ccc(OC)c(OC)c2)cc1 | inconclusive [activator, full curve]
61 | O=C(CN1CCCCC1)NNc1nc(-c2ccccc2)c2cc(Cl)ccc2n1 | inconclusive [activator, single point]
62 | COc1cc(C(=O)Nc2nccs2)ccc1OCc1c(C)noc1C | inconclusive [activator, partial curve, poor fit]
63 | C=CCn1c2ccccc2c2nnc(SCC(=O)Nc3c(C)n(C)n(-c4ccccc4)c3=O)nc21 | inconclusive [activator, partial curve, poor fit]
64 | COc1ccc(-c2nnc(SCC(=O)c3ccc(C)o3)o2)cc1 | inactive
65 | CCN(CC(=O)Nc1c(F)cccc1F)C(=O)c1ccc(C2SCCS2)cc1 | inconclusive [activator, partial curve, poor fit]
66 | O=C(COc1ccccc1[N+](=O)[O-])c1ccccc1 | inactive
67 | COc1ccc(-c2cc(C)no2)cc1S(=O)(=O)NCC(C)c1ccccc1 (configuration not stated) | inactive
